# From publication PMC10726135
# The list shows a part of the results. At the low end of the ranking the order means little. Measured with an extract: partners may take part in the binding.
# Biological target: T1, HNF4alpha8 (COS-7 nuclear extract) (UniProt P41235-5)
# T1 sequence: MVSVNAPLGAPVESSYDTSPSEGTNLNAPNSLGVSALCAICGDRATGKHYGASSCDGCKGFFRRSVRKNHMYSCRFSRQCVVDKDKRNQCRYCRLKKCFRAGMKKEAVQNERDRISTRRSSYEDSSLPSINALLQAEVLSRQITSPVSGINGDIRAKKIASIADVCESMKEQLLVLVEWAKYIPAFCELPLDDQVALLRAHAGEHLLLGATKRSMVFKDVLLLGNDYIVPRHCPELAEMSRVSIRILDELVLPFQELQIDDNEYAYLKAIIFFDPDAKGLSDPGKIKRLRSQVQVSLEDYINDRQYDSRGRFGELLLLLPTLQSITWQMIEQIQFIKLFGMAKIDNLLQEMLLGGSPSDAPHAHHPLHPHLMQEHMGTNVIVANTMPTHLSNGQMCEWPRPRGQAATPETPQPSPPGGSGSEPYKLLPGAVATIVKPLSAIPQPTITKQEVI
# Test: protein-binding microarray
# Settings: COS-7 nuclear extract on double-stranded Agilent 4x180k PBM; binding buffer, salt, pH and temperature not given; high values mean tight binding; double strand, one strand shown; sequences stand for … in …GCCTAGGGAGATTAGAGTATCGGTCGA
row,Sequence,binding signal (log2 normalized intensity)
1,GCTGGCCTCATGCCTTATCTACATAGTCCC,-1.2
2,AATAAGGCTGCGACCTGCTGGGCTGCATTC,-1.4
3,GCCACTCATAGAACTGTCGCAGAAAACACA,-1.29
4,GGTGTAGGGCAGAGGTCAGCCCACAGGTCA,3.64
5,CCTATGGGATCAAAGTGCGACAGGGAGATT,3.5
6,GGGTGGGGGTGGGGAGGATAGCAGCCCAGC,-1.41
7,AGTGACTTAATTATCAGAAGAGGAGCGATG,-0.748
8,TTTAATACAAGTATTATCTTCCATTTCTGC,-1.15
9,CAGGCACAAGAATGGTCATTCTCTGTTGCA,-1.25
10,AGGCAAACAGATGAAGTACTGTTCTAAATT,-0.0831
11,GGTTTCTTGCTGAAGGTAGGACAGGGTGAT,1.11
12,AGACTTTTTTTTTCTTAATTGCCCTTTGCC,5.04
13,TGGCTGAGATCTGGAATTGGGCCAAGCACA,-1.09
14,AGGATAAAGTAAGGTGAAGCCCAGCAGCTC,-1.17
15,CTGCAGCATCTGAGCAGATGTAAACATCAT,-1.21
16,TCTCTGGGGGTCAGAAGTCCAACATTAGTA,4.97
17,GCCCCCGCAGACCCAGTCTTAGGGACTAAG,4.04
18,TCATGGGAATGAAAGGAGGTCATGTACATG,1.43
19,TGTTTGTTTTGAGATAGGGTCTTGCTTTGT,1.3
20,TTGAAATCTCAAATAGCTGGGTCTCACTCT,-0.338
21,AAGTAGAGGAATGCTGGTAAACACTGAGCT,-1.36
22,AGCAGCAAAGTCCTGGAAGAAACCCATTTG,-1.32
23,TACACATCAAAGTATGAGAGCCTGAGAACA,-1.25
24,TCAAAGGGAGATTCCTGACATTCAGTCTTT,0.158
25,TTCAGAGATGATAAGCCCTGAGTAGTTCTT,-1.19

row,Sequence,binding signal (log2 normalized intensity)
1,TTCCCTACCCGGCAAAGAATTGTGAGTCCA,1.91
2,GGAGTATAGGAACATGAACTGAGCAGGCCT,-1.2
3,GCATGTCTCTGGTCGGGGAGGTGTTTATCT,1.06
4,TGTATAATGACACTAGCAGAAGAGACAGTC,-1.34
5,CTCTCACTGCAGAAACTCTGCAGTAACTGT,-0.939
6,CACTCAATGCAGCAGCATTGGACCCTCCCA,6.02
7,TTTCATCAGTCCAATTCACAGAACTCCCTA,-0.295
8,ACACTCTCAATCTTTGCCCTCTTGGTATCA,2.9
9,AACACTCACTGGGAGAGAAAGCTAATTTAA,-1.31
10,GGGGAGGTCAACCAGGGAAATTACCCTCTA,0.0161
11,AGAGCTCAGATGAACTTTGCCTTAGGCCAT,4.78
12,AGACCTTTGTTCACTTGTTTATCTGCTGCC,2.48
13,GCTCCAGCCACTCATTCTTGGAATGCATTG,-1.03
14,AGTTGAGGTGAATACACAGCTAGCAGGTGA,-1.09
15,GACGTTATCAGCAGGAGGAGGAGCCAGTGA,-1.27
16,CCTGGCCCTCTGGGTTGGAACCCCGTTTCT,1.37
17,AAAGTTTGAGGAGAGTCAAAGGTTAATGAG,3.35
18,TGGTGCTGATGTGTTCGCCCCTAGGACACG,1.75
19,CCAGGCCAACCGGTTCCACAGTATCCCTTG,-1.37
20,GAGGATATCCCTCCGCCTCCCTCCCCCTTT,5.15
21,AATAGTACACATCAAAGTATGAGAGCCTGA,-1.32
22,ATTGGTTTACAGCACTTCATCCTTATGTAA,0.727
23,CCCCCACTGCCTGACCCCAAGTAATAGCCG,5.69
24,CACTTTGAGCAAGATAATGACTAAGGCAGG,-1.37
25,CCTGAAACTAGACCAAGAAGACTTTGGGGG,-1.39

row,Sequence,binding signal (log2 normalized intensity)
1,GGACCCTGTTACCACACCACAGCGGGGCCT,-1.15
2,GCCTTTTGGCTAAAGTCCAAATTCCTTGGA,4.45
3,GGATAATGTGCCCTTTGTACCTGGGGCAAA,5.83
4,AGGAAAAAAATAGGAGACTGTCTTAGGAAA,-1.24
5,GCCACGGTCAGCAATGTGGACTTTGTCCTG,10.2
6,AGGAATGAGACATGAATCCATCCCACCTCA,0.0459
7,CAGAAGGTCAGAGATCAGGTCTCTTTTATG,1.22
8,ATCACAAGACATGAAGATGCAGAACAAGGT,-1.24
9,CAGGGAAATATGTTCCACCCAGGGTGGCAG,-1.46
10,TTGCTCATGACTATTCTCTAAACTCTGGGC,-0.561
11,GGAAGTGGGGAAGAAGTGTTCCCCTGTCAC,1.54
12,TCTGGGGTATAAAGGTCAGGGATAGAACTG,3.91
13,TTCAGATACAAGCTAATCTGACCAAGTGAA,-0.729
14,CATGTTTACTTTTGCAAGGTTTGTTCTTAT,1.87
15,GGGTTCCAAGACCAAGCAAGCCAGTCAGAA,-1.32
16,ATAGTTCAGCCATCAGGTAACATATTGTCC,1.18
17,TGTGTGTTCTGGACTTCTCTGCCCTCTTCC,3.22
18,CCCCCAAGGCATGGGACCTTTGCCCTTCTT,6.71
19,GTTATGAGTCTGTTGTCTAACATTTTTGAC,0.787
20,CTTCAAGTCAGTTGCATGCAACCTTTGTCC,6.32
21,GCTGAGGAATTTGGACTTCAGCCCAGGCTG,4.62
22,TCTGTTTCCAGAAATCTGACCTCTGCCTCG,4.55
23,AGCCTCTATGTCAGGCCATTTCACCTTTGC,4.57
24,CCCCGCCCCGCGTCCGTGCACCCTTCCTCT,3.83
25,GTGATAATGGATGGCAAATAAAGGAACTCT,-1.38

row,Sequence,binding signal (log2 normalized intensity)
1,ACAACCTTTGGCCGTGCATGCTTGGACTCT,5.22
2,TTTATCCTTTTTTGAAGGTTAAAGTCCATT,7.82
3,CTGACTCACGGCAGCTTGTACCCTTCTTTC,2.29
4,ACACTCAGGTCTTTCTGGAGATAACAGTGT,1.11
5,TCATGATTTAGTAAGTTCAAGAAGACCTTT,4.29
6,GGGGGAGGGTAAATATAGTTAAAGCCAGCT,-1.28
7,CCCAGACACACCTGCAATGGAAAATTCCAT,-1.27
8,ACGGAAGGCCGGGCCTCAAGGGAATCTGCT,-1.46
9,AGGTCATTGTGCTGACTGGTTGGAATTCCA,1.2
10,TAATATTTGCAAATGACTTTGAGAGTAAGT,0.692
11,TCCAAGGTTCAGCTCCATCTGAACTCTTCA,2.5
12,GCTACATGATACAGCCTTTTGCCCCCAGGC,4.86
13,GCACTGAGGAATGGAAGGACCTTGGACTGA,5.29
14,CACACACAGACATAAACACAGACACACATG,-1.25
15,CAGAGTTCACTTTCCTCTCATTTCTGAACA,0.832
16,AAAAGGACACAGGGTCTGTTTTCAAACACA,-1.32
17,GCAAATACAGGTGAATTTCAGTGCCCTTTG,3.36
18,CATTCTTTTCCCCATACCAGGCAGTTTCCC,2.26
19,CCTCCAGGCCCCAGCCACGCCCTCTAACCC,3.33
20,TTCACCAATTTCCCCCATGAAATTGAGATA,3.25
21,CAAGTTTGAACTGCACAGGCCTACTTATAG,-1.24
22,GAACAGGTTCAGATAAGACAAGCTCTGTTT,-1.25
23,CTCCTCCCCCCGCCGCATCTACCAGCGTAA,4.22
24,TGGCTGCATCCTTCTCCTCCCCTCCCCCCA,5.92
25,GTGCACTTTGACCCTGCTGTAGTGTGTAAG,5.69

row,Sequence,binding signal (log2 normalized intensity)
1,AGCAGATGCTTCCCAGAAAGAATGAGCGGG,-1.29
2,ACAGGCTTAACATAAAGGGTTGAAGAAAGA,-1.2
3,ACCTCACAAAGGGGGCCTGAAGGGTGTTGT,-1.07
4,CTGAGGTGCCCTTACATTTTGCTCTTTGTA,2.81
5,ACTCTCTCAACACTGGCTTCTCTGGCCTAG,-1.29
6,TGGAGGCGGTGCCATTCACAGGAATGTTGG,-1.32
7,GGACGTGTGTGTTCTGGACTTCTCTGCCCT,3.25
8,AGATAAGAGGTGTCATGGCAATAAACAAAA,-1.39
9,AAGTTAAAACAGCAGAGCACGATGAATAGG,-1.24
10,GTGATCAATCAGCAGCAAAGTCCTGGAAGA,0.053
11,ATATTTGCATAATGGAGCAAAGGTCATCCT,7.22
12,AAATCTTCAACTGGAGGATAAAGTTCAAGT,3.09
13,TGCCCTTCTTGTTAACCTCCTATGATCTTT,3.08
14,GGCCTTTCCTGACCCCTCCTCCCCCCGCCG,6.08
15,TACATTGAACTTTGAACACCTCTTCTTTCT,5.51
16,CTTGGACTGAAGACTGGAACTGGGCTGACT,-1.21
17,CTCGGCATCATGCCCTTTGGCCCCCAGAGC,7.18
18,TTCCTGGATTGTGAAACACAGGACTTGATC,1.44
19,CATTCCAGGGTGAAATTCAACAGAACTGTT,-1.41
20,TCTCCTGGAAAGGTTCCACTCTGACTAACT,-1.24
21,ACGCACTCGCCTCTCCTGTTCCGGTTGGGT,0.512
22,ACAAGGGCATGTAAAGGAGATTATCTAGAC,-1.47
23,GAGACTGCTCGGCATCCCTGCCGTGGCTGG,-1.33
24,GACCAAAGATCACAGTGAAGGTGAAGAGTG,0.967
25,GTGTTTGCCCAGCTTGAATCACTCACTGAC,-1.28

row,Sequence,binding signal (log2 normalized intensity)
1,CCACGGAATCCCAGTTCTGATACACTCGCC,-1.39
2,TCCACTCCGGGCGATCCGGGCTCCGGGCGC,-1.28
3,CAAAGTAAACAAAGATACTCTCATCACTTA,-1.31
4,CTGCAATGACAATAAATTATACCAACTATT,-1.26
5,ATCCTTACACAGCAGCTTTAGTCAGAGATT,-1.29
6,AATTGACCTTTGATCACTCATGGGCAAGAT,6.41
7,GAAAGCTGGCTTGGAAAAAGCAGGCAACCA,-1.3
8,GCCAGAACTCAGGGTCTGGTTCCAAAGTCT,4.43
9,CAAAAGCTGAGTCCCTGCTTGATAAGACTG,-0.775
10,AGTTAGGTTCTGGCACCTGAAGCTGCCCTT,2.29
11,TGAACCCTTGGGGCTTTTGCAATTTAAACT,0.505
12,ATCACACAACTTTCATTGAACTGCTGGGGG,-0.529
13,TCGCACCTAAGGGCACCCTTCCTGCTTCCA,-1.22
14,GGCGGAGAGCTCCGGGGTCACGCGCGTGTG,1.79
15,TACCCTGGGAATGGAGAGAGAGAGAATAGC,-1.35
16,CAAACACAGATCAGATATGAGATTCCCAGA,-1.34
17,CAGCGCCTCCCGGTCACTACAACAACGGCG,-1.26
18,TATGTTTCAGCCAAGAGCGGAAAGAAAGGC,-1.19
19,CTCTTTTAGTAACTGACTTTAACTTCAAAG,-1.21
20,CCTTGGCTGTGTGACTCACCTTTGCTCTGA,4.48
